Source: the supplement of paper PMC9151546
Repeats are few or missing, and single values can be far off.

Assays:
CHO-K1 [1] = test: relative survival (nuclei to bead ratio vs DMSO control) (% of vehicle control); higher = more surviving cells
Method: (§1)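 Flow-cytometric in vitro micronucleus assay (Litron MicroFlow) in CHO-K1 cells in 96-well plates, 19 concentrations (4.5-200 µM, n=1 per concentration). Without S9, cells were exposed for 24 h and sampled at 48 h. With Aroclor 1254-induced rat liver S9, cells were exposed for 3-4 h and sampled at 27-28 h. Read-outs are %MN and %hypodiploid nuclei relative to nucleated events, and relative survival as the nuclei-to-bead ratio versus the 1% DMSO vehicle control (x100).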

CHO-K1 [2] = test: hypodiploid nuclei frequency (% of nucleated events); higher = more hypodiploid events (aneugenic)
Method: as §1

CHO-K1 [3] = test: micronucleus frequency (% of nucleated events); higher = more micronuclei (genotoxic)
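Throughout, for hypodiploid nuclei frequency (% of nucleated events): hypodiploid nuclei gated on a flow cytometer with 488 nm excitation after SYTOX Green staining, cultures at 37 °C, positive controls vinblastine without S9 and cyclophosphamide with S9.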
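Throughout, for micronucleus frequency (% of nucleated events): cells lysed with nuclei stained by SYTOX Green, then micronucleus-gated events counted against nucleated events by flow cytometry with 488 nm excitation.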
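Throughout, for relative survival (nuclei to bead ratio vs DMSO control): Lysed-cell nuclei stained with SYTOX Green and counted against counting beads by flow cytometry at 488 nm excitation, with vinblastine (no S9) and cyclophosphamide (plus S9) as positive controls.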

CC1(C)C(=O)N(Br)C(=O)N1Br [1,3-Dibromo-5,5-dimethylhydantoin]
Conditions | hypodiploid nuclei frequency, CHO-K1 [2] [%] | micronucleus frequency, CHO-K1 [3] [%] | relative survival, CHO-K1 [1]
concentration: 4.5 (µM), S9 metabolic activation: with S9, exposure time: 3-4 hours | 0.36 | 1.58 | 99.2
concentration: 4.5 (µM), S9 metabolic activation: without S9, exposure time: 24 hours | 0.64 | 1.78 | 116
concentration: 5.63 (µM), S9 metabolic activation: with S9, exposure time: 3-4 hours | 0.2 | 1.46 | 86.7
concentration: 5.63 (µM), S9 metabolic activation: without S9, exposure time: 24 hours | 0.54 | 2.54 | 112
concentration: 7.04 (µM), S9 metabolic activation: with S9, exposure time: 3-4 hours | 0.18 | 1.3 | 88.4
concentration: 7.04 (µM), S9 metabolic activation: without S9, exposure time: 24 hours | 0.64 | 1.84 | 121
concentration: 8.8 (µM), S9 metabolic activation: with S9, exposure time: 3-4 hours | 0.28 | 1.7 | 82.9
concentration: 8.8 (µM), S9 metabolic activation: without S9, exposure time: 24 hours | 0.64 | 1.82 | 124
concentration: 11 (µM), S9 metabolic activation: with S9, exposure time: 3-4 hours | 0.16 | 1.24 | 83.9
concentration: 11 (µM), S9 metabolic activation: without S9, exposure time: 24 hours | 0.9 | 2.02 | 115
concentration: 13.7 (µM), S9 metabolic activation: with S9, exposure time: 3-4 hours | 0.12 | 1.52 | 98.2
concentration: 13.7 (µM), S9 metabolic activation: without S9, exposure time: 24 hours | 0.68 | 1.38 | 121
concentration: 17.2 (µM), S9 metabolic activation: with S9, exposure time: 3-4 hours | 0.28 | 1.32 | 108
concentration: 17.2 (µM), S9 metabolic activation: without S9, exposure time: 24 hours | 0.76 | 2.1 | 104
concentration: 21.5 (µM), S9 metabolic activation: with S9, exposure time: 3-4 hours | 0.18 | 1.36 | 101
concentration: 21.5 (µM), S9 metabolic activation: without S9, exposure time: 24 hours | 0.78 | 1.62 | 124
concentration: 26.8 (µM), S9 metabolic activation: with S9, exposure time: 3-4 hours | 0.24 | 0.98 | 113
concentration: 26.8 (µM), S9 metabolic activation: without S9, exposure time: 24 hours | 0.68 | 1.46 | 109
concentration: 33.6 (µM), S9 metabolic activation: with S9, exposure time: 3-4 hours | 0.14 | 1.14 | 95.9
concentration: 33.6 (µM), S9 metabolic activation: without S9, exposure time: 24 hours | 0.66 | 1.3 | 124
concentration: 41.9 (µM), S9 metabolic activation: with S9, exposure time: 3-4 hours | 0.34 | 1.26 | 83.9
concentration: 41.9 (µM), S9 metabolic activation: without S9, exposure time: 24 hours | 0.68 | 1.22 | 110
concentration: 52.4 (µM), S9 metabolic activation: with S9, exposure time: 3-4 hours | 0.1 | 1.08 | 97.2
concentration: 52.4 (µM), S9 metabolic activation: without S9, exposure time: 24 hours | 0.86 | 1.32 | 124
concentration: 65.5 (µM), S9 metabolic activation: with S9, exposure time: 3-4 hours | 0.24 | 1.06 | 85.2
concentration: 65.5 (µM), S9 metabolic activation: without S9, exposure time: 24 hours | 0.82 | 1.42 | 108
concentration: 81.9 (µM), S9 metabolic activation: with S9, exposure time: 3-4 hours | 0.26 | 1.28 | 91.5
concentration: 81.9 (µM), S9 metabolic activation: without S9, exposure time: 24 hours | 0.8 | 1.48 | 114
concentration: 102 (µM), S9 metabolic activation: with S9, exposure time: 3-4 hours | 0.12 | 0.98 | 75
concentration: 102 (µM), S9 metabolic activation: without S9, exposure time: 24 hours | 0.8 | 1.48 | 112
concentration: 128 (µM), S9 metabolic activation: with S9, exposure time: 3-4 hours | 0.18 | 1.24 | 73.2
concentration: 128 (µM), S9 metabolic activation: without S9, exposure time: 24 hours | 1.38 | 1.7 | 108
concentration: 160 (µM), S9 metabolic activation: with S9, exposure time: 3-4 hours | 0.26 | 1.64 | 83.4
concentration: 160 (µM), S9 metabolic activation: without S9, exposure time: 24 hours | 1.06 | 1.96 | 95.5
concentration: 200 (µM), S9 metabolic activation: with S9, exposure time: 3-4 hours | 0.12 | 1.5 | 72.1
concentration: 200 (µM), S9 metabolic activation: without S9, exposure time: 24 hours | 1.06 | 2.56 | 94.7
